Reference: the supplement of paper PMC4967469
IC50 is the fitted dose that halves viability relative to control wells, and lower means more sensitive; a limit (>, <) means that the fit lies beyond the doses tested. AUC is the area under the same curve over the 256-fold range up to the top dose, as a fraction; the more sensitive the line, the further below 1. For some of these results: Where the top dose is marked as inferred, it was calculated from the reported fits. For some of these results: An entry number marks a drug with two screens in the source, which often give different values.

Legend:
Experiment in all cases: Viability of human cancer cell lines after 72 h of drug (GDSC screen)
SB-505124 = compound: Cc1cccc(-c2[nH]c(C(C)(C)C)nc2-c2ccc3c(c2)OCO3)n1 [SB-505124]; settings: top dose 10 µM; top dose inferred
Method: (§1)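 Human cancer cell lines in 384-well plates, medium with 10% serum, drug for 72 h over a 256-fold dose range (nine 2-fold or five 4-fold steps up to the top dose). Adherent lines were fixed and stained with the nucleic acid dye Syto60, suspension lines read with resazurin; signal relative to control wells, capped at 0 and 100%. One two-parameter sigmoid per drug and line, fitted in a mixed model over all curves with the slope shared within a line.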

PI-103 = compound: Oc1cccc(-c2nc(N3CCOCC3)c3oc4ncccc4c3n2)c1 [PI-103]; settings: top dose 10.24 µM
Method: as §1

Tretinoin = compound: CC1=C(/C=C/C(C)=C/C=C/C(C)=C/C(=O)O)C(C)(C)CCC1 [Tretinoin]; settings: top dose 10 µM; top dose inferred
Method: as §1

UNC0638 = compound: COc1cc2c(NC3CCN(C(C)C)CC3)nc(C3CCCCC3)nc2cc1OCCCN1CCCC1 [UNC0638]
Method: as §1

GSK690693 = compound: CCn1c(-c2nonc2N)nc2c(C#CC(C)(C)O)ncc(OC[C@H]3CCCNC3)c21 [GSK690693]; settings: top dose 10.24 µM; top dose inferred
Method: as §1

BX-795 = compound: O=C(NCCCNc1nc(Nc2cccc(NC(=O)N3CCCC3)c2)ncc1I)c1cccs1 [BX-795]; settings: top dose 5 µM; top dose inferred
Method: as §1

[1] = top dose 20 µM, screen: GDSC drug entry 1236, top dose inferred
[2] = top dose 40 µM, screen: GDSC drug entry 245

Cell Line	AUC (SB-505124)	IC50 (SB-505124)	AUC (PI-103)	IC50 (PI-103)	AUC (Tretinoin)	IC50 (Tretinoin)	AUC (UNC0638; [1])	IC50 (UNC0638; [1])	AUC (UNC0638; [2])	IC50 (UNC0638; [2])	AUC (GSK690693)	IC50 (GSK690693)	AUC (BX-795)	IC50 (BX-795)
MDA-MB-175-VII (breast, adherent)	0.986	> 10 µM	0.396	0.322 µM	0.978	> 10 µM	0.986	> 20 µM	0.967	> 40 µM	0.841	8.23 µM	–	–
MEL-HO (melanoma, adherent)	0.839	6.94 µM	–	–	0.898	> 10 µM	0.806	10.3 µM	–	–	–	–	0.901	> 5 µM
MHH-CALL-2 (B-cell leukaemia, suspension)	0.968	> 10 µM	–	–	0.993	> 10 µM	0.865	10.5 µM	–	–	–	–	0.996	> 5 µM
MKN7 (stomach, adherent)	0.982	> 10 µM	–	–	0.981	> 10 µM	0.843	> 20 µM	–	–	–	–	0.889	> 5 µM
MKN45 (stomach, adherent)	0.941	> 10 µM	0.696	2.65 µM	0.937	> 10 µM	0.853	> 20 µM	0.866	> 40 µM	0.958	> 10.2 µM	–	–
MOLM-16 (acute myeloid leukaemia, suspension)	0.969	> 10 µM	–	–	0.945	> 10 µM	0.78	7.23 µM	–	–	–	–	0.745	1.41 µM
MOLT-16 (T-cell lymphoblastic leukaemia, suspension)	0.896	7.92 µM	–	–	0.889	7.41 µM	0.777	6.44 µM	–	–	–	–	0.807	1.97 µM
Mewo (melanoma, adherent)	0.983	> 10 µM	0.846	9.74 µM	0.875	> 10 µM	0.816	13.9 µM	0.749	15.3 µM	0.982	> 10.2 µM	–	–
NCI-H292 (lung adenocarcinoma, adherent)	0.871	> 10 µM	0.813	7.05 µM	0.832	8.39 µM	0.656	3.74 µM	0.686	9.35 µM	0.979	> 10.2 µM	–	–
NCI-H441 (lung adenocarcinoma, adherent)	0.978	> 10 µM	0.981	> 10.2 µM	0.954	> 10 µM	0.874	> 20 µM	0.911	> 40 µM	0.981	> 10.2 µM	–	–
NCI-H2029 (small cell lung carcinoma, adherent)	0.989	> 10 µM	0.892	10.1 µM	0.985	> 10 µM	0.943	> 20 µM	0.767	13.4 µM	0.947	> 10.2 µM	–	–
NCI-H2122 (lung adenocarcinoma, adherent)	0.966	> 10 µM	0.813	5.1 µM	0.981	> 10 µM	0.745	5.96 µM	0.845	26.1 µM	0.983	> 10.2 µM	–	–
PA-TU-8988T (pancreas, adherent)	0.895	> 10 µM	0.59	1.13 µM	0.938	> 10 µM	0.948	> 20 µM	0.912	> 40 µM	0.985	> 10.2 µM	–	–
PANC-08-13 (pancreas, adherent)	0.979	> 10 µM	0.579	1.12 µM	0.974	> 10 µM	0.83	17.7 µM	0.716	12.3 µM	0.983	> 10.2 µM	–	–
RMG-I (ovary, adherent)	0.968	> 10 µM	0.454	0.47 µM	0.983	> 10 µM	0.888	> 20 µM	0.745	14.4 µM	0.97	> 10.2 µM	–	–
SCC-4 (head and neck, adherent)	0.982	> 10 µM	0.961	> 10.2 µM	0.89	> 10 µM	0.94	> 20 µM	0.971	> 40 µM	0.975	> 10.2 µM	–	–
SK-MEL-24 (melanoma, adherent)	0.981	> 10 µM	0.983	> 10.2 µM	0.937	> 10 µM	0.835	17.3 µM	0.866	> 40 µM	0.983	> 10.2 µM	–	–
SW1990 (pancreas, adherent)	0.97	> 10 µM	0.944	> 10.2 µM	0.982	> 10 µM	0.983	> 20 µM	0.972	> 40 µM	0.985	> 10.2 µM	–	–
U251 (glioma, adherent)	0.792	4.29 µM	0.791	4.37 µM	0.985	> 10 µM	0.881	19.2 µM	0.762	13.7 µM	0.95	> 10.2 µM	–	–
UM-UC-3 (bladder, adherent)	0.959	> 10 µM	0.281	0.161 µM	0.988	> 10 µM	0.959	> 20 µM	0.878	36.3 µM	0.957	> 10.2 µM	–	–
UMC-11 (lung carcinoid, adherent)	0.989	> 10 µM	0.62	1.32 µM	0.957	> 10 µM	0.897	> 20 µM	0.738	10.9 µM	0.987	> 10.2 µM	–	–
VMRC-MELG (melanoma, adherent)	0.988	> 10 µM	0.972	> 10.2 µM	0.984	> 10 µM	0.858	17.7 µM	0.874	> 40 µM	0.989	> 10.2 µM	–	–
WM278 (melanoma, adherent)	0.979	> 10 µM	0.98	> 10.2 µM	0.975	> 10 µM	0.706	5.17 µM	0.677	8.32 µM	0.981	> 10.2 µM	–	–
